# Measurements reported in the supplement of paper PMC8728848.
# Some of the results follow.
# Experiments:
# Experiment in all cases: glycan array binding signal (z-score within array); higher = stronger binding
# Conditions in all cases: glycan notation: IUPAC condensed, linker removed
# Fuc(a1-2)Gal = target: Fuc(a1-2)Gal
# Outline: (§1)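 The binding signal is a Z-score computed within each array and averaged over linkers. Arrays of the same protein sequence at different concentrations or buffers were also averaged together. Data originate from 3228 arrays in the Consortium for Functional Glycomics database, kept only where the protein sequence was available.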
# Fuc(a1-2)Gal(b1-3)GalNAc = target: Fuc(a1-2)Gal(b1-3)GalNAc
# Outline: as §1
# [1] = target: Fuc(a1-2)Gal(b1-3)GalNAc(b1-3)Gal
# Outline: as §1
# [2] = target: Fuc(a1-2)Gal(b1-3)GalNAc(b1-3)Gal(a1-4)Gal(b1-4)Glc
# Outline: as §1
# [3] = target: Fuc(a1-2)Gal(b1-3)GalNAc(b1-4)[Neu5Ac(a2-3)]Gal(b1-4)Glc
# Outline: as §1
# Fuc(a1-2)Gal(b1-3)GlcNAc = target: Fuc(a1-2)Gal(b1-3)GlcNAc
# Outline: as §1
# [4] = target: Fuc(a1-2)Gal(b1-3)GlcNAc(b1-3)Gal(b1-4)Glc
# Outline: as §1
# [5] = target: Fuc(a1-2)Gal(b1-3)[Fuc(a1-4)]GlcNAc
# Outline: as §1
# Fuc(a1-2)Gal(b1-4)Glc = target: Fuc(a1-2)Gal(b1-4)Glc
# Outline: as §1
# Fuc(a1-2)Gal(b1-4)Glc6S = target: Fuc(a1-2)Gal(b1-4)Glc6S
# Outline: as §1
# Fuc(a1-2)Gal(b1-4)GlcNAc = target: Fuc(a1-2)Gal(b1-4)GlcNAc
# Outline: as §1
# [6] = target: Fuc(a1-2)Gal(b1-4)GlcNAc(b1-3)Gal(b1-4)GlcNAc
# Outline: as §1
# [7] = target: Fuc(a1-2)Gal(b1-4)GlcNAc(b1-3)Gal(b1-4)GlcNAc(b1-3)Gal(b1-4)GlcNAc
# Outline: as §1
# [8] = target: Fuc(a1-2)Gal(b1-4)GlcNAc6S
# Outline: as §1
# [9] = target: Fuc(a1-2)Gal(b1-4)[Fuc(a1-3)]GlcNAc
# Outline: as §1
# [10] = target: Fuc(a1-2)Gal(b1-4)[Fuc(a1-3)]GlcNAc(b1-3)Gal(b1-4)[Fuc(a1-3)]GlcNAc
# Outline: as §1
# [11] = target: Fuc(a1-2)Gal(b1-4)[Fuc(a1-3)]GlcNAc(b1-3)Gal(b1-4)[Fuc(a1-3)]GlcNAc(b1-3)Gal(b1-4)[Fuc(a1-3)]GlcNAc
# Outline: as §1
# Fuc(a1-2)Gal6S(b1-4)Glc = target: Fuc(a1-2)Gal6S(b1-4)Glc
# Outline: as §1
# [12] = target: Fuc(a1-2)Gal6S(b1-4)Glc6S
# Outline: as §1
# [13] = target: Fuc(a1-2)Gal6S(b1-4)GlcNAc
# Outline: as §1
# Fuc(a1-2)[Gal(a1-3)]Gal = target: Fuc(a1-2)[Gal(a1-3)]Gal
# Outline: as §1
# [14] = target: Fuc(a1-2)[Gal(a1-3)]Gal(b1-3)GlcNAc
# Outline: as §1
# [15] = target: Fuc(a1-2)[Gal(a1-3)]Gal(b1-4)Glc
# Outline: as §1
# [16] = target: Fuc(a1-2)[Gal(a1-3)]Gal(b1-4)GlcNAc
# Outline: as §1
# [17] = target: Fuc(a1-2)[Gal(a1-3)]Gal(b1-4)[Fuc(a1-3)]GlcNAc
# Outline: as §1
# [18] = target: Fuc(a1-2)[Gal(a1-4)]Gal(b1-4)GlcNAc
# Outline: as §1
# [19] = target: Fuc(a1-2)[GalNAc(a1-3)]Gal
# Outline: as §1
# [20] = target: Fuc(a1-2)[GalNAc(a1-3)]Gal(b1-3)GlcNAc
# Outline: as §1
# [21] = target: Fuc(a1-2)[GalNAc(a1-3)]Gal(b1-4)Glc
# Outline: as §1
# [22] = target: Fuc(a1-2)[GalNAc(a1-3)]Gal(b1-4)GlcNAc
# Outline: as §1
# [23] = target: Fuc(a1-2)[GalNAc(a1-3)]Gal(b1-4)[Fuc(a1-3)]GlcNAc
# Outline: as §1
# [24] = target: Fuc(a1-2)[GalNAc(a1-4)]Gal(b1-4)GlcNAc
# Outline: as §1
# [25] = target: Fuc(a1-2)[GalNAc(b1-3)]Gal
# Outline: as §1
# Fuc(a1-3)GlcNAc = target: Fuc(a1-3)GlcNAc
# Outline: as §1
# [26] = target: Fuc(a1-3)[Gal(b1-4)]Glc6S
# Outline: as §1
# [27] = target: Fuc(a1-3)[Gal(b1-4)]GlcNAc
# Outline: as §1
# [28] = target: Fuc(a1-3)[Gal(b1-4)]GlcNAc(b1-2)Man(a1-3)[Fuc(a1-3)[Gal(b1-4)]GlcNAc(b1-2)Man(a1-6)]Man(b1-4)GlcNAc(b1-4)GlcNAc
# Outline: as §1
binder,measurement,setting,value
"NKp30 (Homo sapiens), O14931 (protein) MAWMLLLILIMVHPGSCALWVSQPPEIRTLEGSSAFLPCSFNASQGRLAIGSVTWFRDEVVPGKEVRNGTPERFGRLAPLASSRFLHDHQAELHIRDVRGHDASIYVCRVEVLGLGVGTGNGTRLVVRKEHPQLGAGTHADPEAPEAEGAPSVFLFPPKPKDTLMISRTPEVTCVVVDVSHEDPEVKFNWYVDGVEVHNAKTPREEQYNSTYRVVSVLTVLHQDWLNGKEYKCKVSNKALPAPIEKTISKAKGQPREPQVYTLPPSRDELTKNQVSLTCLVKGFYPSDIAVEWESNGQPENNYKTTPPVLDSDGSFFLYSKLTVDKSRWQQGNVFSCSVMHEALHNHYTQKSLSLSPGK",glycan array binding signal (z-score),Fuc(a1-2)Gal,0.909
same,glycan array binding signal (z-score),Fuc(a1-2)Gal(b1-3)GalNAc,-0.27
same,glycan array binding signal (z-score),[1],0.58
same,glycan array binding signal (z-score),[2],0.331
same,glycan array binding signal (z-score),[3],-0.12
same,glycan array binding signal (z-score),Fuc(a1-2)Gal(b1-3)GlcNAc,0.424
same,glycan array binding signal (z-score),[4],-0.248
same,glycan array binding signal (z-score),[5],-0.395
same,glycan array binding signal (z-score),Fuc(a1-2)Gal(b1-4)Glc,-0.091
same,glycan array binding signal (z-score),Fuc(a1-2)Gal(b1-4)Glc6S,0.207
same,glycan array binding signal (z-score),Fuc(a1-2)Gal(b1-4)GlcNAc,0.208
same,glycan array binding signal (z-score),[6],-0.739
same,glycan array binding signal (z-score),[7],-0.292
same,glycan array binding signal (z-score),[8],-0.294
same,glycan array binding signal (z-score),[9],0.195
same,glycan array binding signal (z-score),[10],-0.389
same,glycan array binding signal (z-score),[11],-0.18
same,glycan array binding signal (z-score),Fuc(a1-2)Gal6S(b1-4)Glc,-0.462
same,glycan array binding signal (z-score),[12],-0.246
same,glycan array binding signal (z-score),[13],1.01
same,glycan array binding signal (z-score),Fuc(a1-2)[Gal(a1-3)]Gal,0.375
same,glycan array binding signal (z-score),[14],0.326
same,glycan array binding signal (z-score),[15],-0.318
same,glycan array binding signal (z-score),[16],0.11
same,glycan array binding signal (z-score),[17],-0.213
same,glycan array binding signal (z-score),[18],-0.315
same,glycan array binding signal (z-score),[19],0.358
same,glycan array binding signal (z-score),[20],-0.186
same,glycan array binding signal (z-score),[21],-0.303
same,glycan array binding signal (z-score),[22],0.07
same,glycan array binding signal (z-score),[23],0.416
same,glycan array binding signal (z-score),[24],-0.379
same,glycan array binding signal (z-score),[25],0.39
same,glycan array binding signal (z-score),Fuc(a1-3)GlcNAc,13.9
same,glycan array binding signal (z-score),[26],0.215
same,glycan array binding signal (z-score),[27],-0.152
same,glycan array binding signal (z-score),[28],-0.546
